Hit rate of the full screen: of about 390,000 compounds, about 150 (0.038%) were called active. The shares of active, inactive and inconclusive entries below differ from those in the screen. Calls come from the whole dose curve; as a rule, active = well fitted inhibition curve with a large enough effect; inconclusive = small, poorly fitted or top-dose-only effect; inactive = no such curve, though single readings can be large or run the other way. A potency beside an inconclusive call is a rough fit, not a confirmed value. The source holds several records for some structures; these can differ, active in one and inactive in another.
Each compound was assayed against Regulator of G-protein signaling 4 (Homo sapiens) (UniProt P49798) (assay: Inhibitors of Regulator of G Protein Signaling (RGS) 4: qHTS). Conditions: Transcreener GDP fluorescence polarization, RGS4-accelerated GTP hydrolysis; series mostly up to 114 µM; activity change, negative = inhibition: at the top concentration.
How it was run: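 MLSMR compounds (23 nl, pin-transferred) preincubated 10 min at room temperature with a 500nM (2x) first reagent, then RGS4 at 900nM (2x) plus Transcreener GDP mix added; fluorescence polarization (620/688 nm) read before and after 90 min at 30 °C.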
% is set by controls: 0 for no effect and ±100 for the full control effect; potency is the fitted concentration of half-maximal effect; tags give direction and shape of the fitted curve.
Note: nearly all actives have a fitted effect of over 75% in size.

UniProt P49798, sequence (P49798 whole entry, looked up): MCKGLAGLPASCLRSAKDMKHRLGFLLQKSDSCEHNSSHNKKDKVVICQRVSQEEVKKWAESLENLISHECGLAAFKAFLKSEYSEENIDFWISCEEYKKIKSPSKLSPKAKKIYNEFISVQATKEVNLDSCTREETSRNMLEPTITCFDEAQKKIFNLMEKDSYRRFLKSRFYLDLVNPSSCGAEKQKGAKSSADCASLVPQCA

Compound	Potency	activity change, negative = inhibition
N#CC(C#N)=Cc1ccc(C=C(C#N)C#N)cc1	inconclusive: 44.7 µM [inhibitor, partial curve, poor fit]	
CC1CCC/C=C/C2CC(O)CC2C(O)/C=C/C(=O)O1 (configuration not stated)		inactive: -15%
Cc1ccc(N2C(=O)NC(=O)/C(=C/C=C/c3ccco3)C2=O)cc1	inconclusive: 20 µM [inhibitor, full curve, poor fit]	
Cc1nnc2ccc(-c3cccc(C(F)(F)F)c3)nn12	inconclusive: 0.168 µM [inhibitor, full curve, poor fit]	
Cn1cnc2c(ncn2[C@@H]2O[C@H](CO)[C@@H](O)[C@H]2O)c1=N	inconclusive: 0.947 µM [inhibitor, partial curve, poor fit]	
CCC1C(=O)OCC1Cc1cncn1C (configuration not stated)	active: 26.7 µM	
Cc1cc(C=C2C(=O)NC(=S)NC2=O)c(C)n1-c1ccc2c(c1)OCO2	inconclusive: 79.4 µM [inhibitor, partial curve, poor fit]	
CN(C)c1ccc(CCN2CCOCC2)cc1		inactive: -7.49%
COc1cc(OC)c(/C=C2/C(=O)Nc3ccccc32)c(OC)c1	inconclusive: 15 µM [inhibitor, partial curve, poor fit]	
Cn1c(=O)c2c(nc(N/N=C/c3c(O)n(C4CCCCC4)c(=S)[nH]c3=O)n2C)n(C)c1=O	inconclusive: 50.1 µM [inhibitor, partial curve, poor fit]	
Cc1ccc(OCC(=O)N2CCN(CC3CC4C=CC3C4)CC2)cc1 (configuration not stated)	inconclusive: 89.1 µM [inhibitor, single point]	
C=CCN1C(=O)NC(=O)/C(=C\c2ccc(-c3ccccc3[N+](=O)[O-])o2)C1=O	inconclusive: 20 µM [inhibitor, full curve, poor fit]	
CCCN(CCC)[C@@H]1CCc2c(OC)cccc2[C@@H]1C	inconclusive: 8.44 µM [inhibitor, partial curve, poor fit]	
CN1CCc2nc(SC(C(=O)O)c3ccccc3)c(C#N)c(-c3cccs3)c2C1 (configuration not stated)	inconclusive: 44.7 µM [inhibitor, partial curve, poor fit]	
CN1C(=O)N(C)C(=O)C2(Cc3cc(NC(=O)c4ccc(F)cc4)ccc3N3CCCC32)C1=O (configuration not stated)	inconclusive: 79.4 µM [inhibitor, partial curve, poor fit]	
Cn1cc(/C=C(\C(=O)O)C(C(=O)O)=C2CCCCC2)c2ccccc21	inconclusive: 50.1 µM [inhibitor, partial curve, poor fit]	
CN1C(=O)C(=Cc2c(OCc3cnc(Cl)s3)ccc3ccccc23)C(=O)N(C)C1=O	inconclusive: 56.2 µM [inhibitor, partial curve, poor fit]	
CC(=O)[C@H]1CCC2C3CC=C4C[C@@H](OS(=O)(=O)O)CC[C@]4(C)C3CC[C@@]21C (some centres not stated)	inconclusive: 0.299 µM [inhibitor, full curve, poor fit]	
COC(=O)C1=C(c2ccc(F)cc2OCc2ccccc2)C[C@@H]2CC[C@H]1N2C(=O)NCc1cccc(F)c1	inconclusive: 50.1 µM [inhibitor, partial curve, poor fit]	

Compound	Potency	activity change, negative = inhibition
COc1cc(N2CCOCC2)ccc1/C=C1\C(=O)NC(=O)N(Cc2ccc3c(c2)OCO3)C1=O	inconclusive: 44.7 µM [inhibitor, partial curve, poor fit]	
Fc1ccccc1CNC1CN2CCC1CC2 (configuration not stated)	inconclusive: 44.7 µM [inhibitor, partial curve, poor fit]	
COc1ccc(NC(=O)CN2C(=O)C(C)N=C(c3ccccc3)c3ccccc32)cc1OC (configuration not stated)		inactive: 1.61%
COc1ccc2nc(NC3=NCCN3)sc2c1		inactive: 4.85%
O=C(O)CCn1cc(C=C2C(=O)NC(=S)NC2=O)c(-c2cccc(Cl)c2)n1	inconclusive: 17.8 µM [inhibitor, full curve, poor fit]	
CN1CC[C@@]2(C)c3cc(OC(=O)Nc4ccccc4)ccc3N(C)[C@@H]12	inconclusive: 37.7 µM [inhibitor, single point]	
C=CCN1C(=O)NC(=O)/C(=C/c2ccc(N(C)C)c(Br)c2)C1=O	inconclusive: 50.1 µM [inhibitor, partial curve, poor fit]	
CC(=NCCN1CCCCC1)c1c(O)[nH]c(=O)[nH]c1=O		inactive: 55.6%
CCCCCCCCCCCCCC(=O)O[C@@H]1[C@@H](C)[C@@]2(O)[C@@H](C=C(CO)C[C@@]3(O)C(=O)C(C)=C[C@@H]23)C2C(C)(C)[C@@]21OC(C)=O (some centres not stated)	inconclusive: 15 µM [inhibitor, partial curve, poor fit]	
COc1ccc2c(c1OC)C(=O)OC2c1c(O)n(Cc2ccc(F)cc2)c(=O)[nH]c1=O (configuration not stated)		inactive: -38.4%
Cc1cc(N2CCCCC2)ccc1C=C1C(=O)N(C)C(=S)N(C)C1=O	inconclusive: 89.1 µM [inhibitor, single point]	
COC(=O)C1=C(c2cc3ccccc3s2)C[C@@H]2CC[C@H]1N2C(=O)NC1CCCCC1		inactive: -16.5%
C=C(C)[C@H]1O[C@H]2CC[C@@]3(C)[C@@](O)(CC[C@H]4[C@@H]5OC(C)(C)[C@H]6C[C@@H]7C(=C)Cc8c(Cl)cc9[nH]c(c5c9c8[C@@]76O)[C@@]43C)[C@]23O[C@@H]3[C@H]1O	inconclusive: 0.844 µM [inhibitor, full curve, poor fit]	
CCN(CC)C(=O)c1ccc(NC(=O)c2cn(-c3ccccc3)nc2-c2ccc(OC)cc2)cc1		inactive: -16%
O=C1NC(=O)N(Cc2cccs2)C(=O)/C1=C/c1ccc(N2CCOCC2)cc1	inconclusive: 20 µM [inhibitor, full curve, poor fit]	
COC(=O)CN1CN(c2ccccc2)C2(CCN(Cc3ccc4ccccc4c3)CC2)C1=O		inactive: -14.6% [at 56.9 µM]
CCOC(=O)C(O)(c1ccc(NC(=O)c2ccc(Cl)c(Cl)c2)cc1)C(F)(F)F (configuration not stated)		inactive: -37.3%
CCCCOc1ccc(C(C)=O)cc1Cc1c(O)[nH]c(=S)[nH]c1=O	inconclusive: 20 µM [inhibitor, full curve, poor fit]	
O=C1NC(=O)N(CCC2=CCCCC2)C(=O)/C1=C/c1cccs1	inconclusive: 17.8 µM [inhibitor, full curve, poor fit]	

Compound	Potency	activity change, negative = inhibition
C[N+]1(C)CCC(OC(=O)C(c2ccccc2)c2ccccc2)CC1	inconclusive: 0.168 µM [inhibitor, full curve, poor fit]	
COC(=O)C(O)(c1ccc(NC(=S)NC(=O)c2ccccc2)cc1)C(F)(F)F (configuration not stated)	inconclusive: 89.1 µM [inhibitor, partial curve, poor fit]	
CN(C)c1ccc(C=C2C(=O)NC(=O)NC2=O)cc1	inconclusive: 79.4 µM [inhibitor, partial curve, poor fit]	
COC(=O)C1=Nc2ccccc2/C1=C\c1c(O)n(C)c(=O)n(C)c1=O	inconclusive: 79.4 µM [inhibitor, single point]	
O=C(c1ccc(CNS(=O)(=O)c2ccccc2)cc1)N1CCC2(CC1)OCCO2	inconclusive: 70.8 µM [inhibitor, partial curve, poor fit]	
COc1cc(/C=C2\C(=O)NC(=O)N(c3ccccc3)C2=O)c([N+](=O)[O-])cc1OC	inconclusive: 28.2 µM [inhibitor, full curve, poor fit]	
O=C1NC(=O)N(c2ccccc2)C(=O)/C1=C/c1ccc([N+](=O)[O-])s1	inconclusive: 50.1 µM [inhibitor, partial curve, poor fit]	
COC(=O)C1=C(C(=O)OC)C2OC1c1cc3ccccc3cc12	inconclusive: 28.2 µM [inhibitor, partial curve, poor fit]	
O=C1NC(=O)N(c2ccccc2)C(=O)/C1=C/C=C/c1ccco1	inconclusive: 44.7 µM [inhibitor, partial curve, poor fit]	
Oc1c(Cl)cc(Cl)cc1CN1CCN(Cc2ccccc2)CC1		inactive: 1.9%
CC(C)CS(=O)(=O)C1=NN2C(=N)/C(=C\c3ccc(OC(=O)c4ccco4)cc3)C(=O)N=C2S1	inconclusive: 79.4 µM [inhibitor, partial curve, poor fit]	
CC(=O)c1ccc(OC(C)C)c(Cc2c(O)[nH]c(=S)[nH]c2=O)c1	inconclusive: 35.5 µM [inhibitor, full curve, poor fit]	
CC(C)(O)[C@@H]1C2OC(=O)[C@@H]1[C@]1(O)C[C@H]3O[C@]34C(=O)O[C@H]2[C@]14C (tested in a mixture with another compound)		inactive: 19.3% [at 56.9 µM]
COC(=O)C(O)(c1ccc(NC(=O)c2cccs2)c(C)c1)C(F)(F)F (configuration not stated)	inconclusive: 100 µM [inhibitor, single point]	
COC(=O)C1=C(c2ccc(-c3ccccc3)c(F)c2)C[C@@H]2CC[C@H]1N2C(=O)N1CCOCC1		inactive: -4.49%
O=c1c2ccccc2nc(CN2CCCCCC2)n1-c1ccc(F)cc1	inconclusive: 50.1 µM [inhibitor, partial curve, poor fit]	
CN[C@@H]1C[C@H]2O[C@@](C)([C@@H]1OC)n1c3ccccc3c3c4c(c5c6ccccc6n2c5c31)C(=O)NC4	inconclusive: 10.6 µM [inhibitor, partial curve, poor fit]	
O=C1NC(=O)N(c2ccccc2)C(=O)/C1=C\c1ccc([N+](=O)[O-])s1	inconclusive: 50.1 µM [inhibitor, partial curve, poor fit]	
Cc1noc(C)c1CSc1nc2cc(S(=O)(=O)N3CCOCC3)ccc2o1	inconclusive: 79.4 µM [inhibitor, partial curve, poor fit]	

From PubChem BioAssay AID504845 (National Center for Advancing Translational Sciences (NCATS), 2011)
